# Publication PMC12136788
# This is one part of the list.
# T1: UNK ZnF1-3 (human, UniProt Q9C0B0 31-174)
# T1 sequence: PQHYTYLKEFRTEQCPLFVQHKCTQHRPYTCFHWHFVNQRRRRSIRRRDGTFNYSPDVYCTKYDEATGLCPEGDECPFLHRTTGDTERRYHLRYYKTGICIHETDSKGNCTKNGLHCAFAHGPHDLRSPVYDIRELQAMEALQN
# B1: chr2:172803269:172803270:+_ENSG00000128708_ENST00000264108|hu_hu|FALSE|FALSE (ssRNA)
# RNA: GGGAGUUCUACAGUCCGACGAUCAAAAGCAGUUUCAUCAUCCCCAAAGAGUUGAUGGGUAUACUCAGGAAAGAAAGUUCUAAUGUCAUUUUCAAGAUCUUCAGGAAAACGAACUAAUUUUAGUUCAAUUGCUGUGUUGGUGUUCAACAGAGGAUUGAGCAUCA
# B2: 59264645_59265857_1752_CDS_ENSMUSG00000026024_ENSMUST00000027178|mouse|control|control (ssRNA)
# RNA: GGGAGUUCUACAGUCCGACGAUCCUCCAGGUGGAUUACCUCUUUACCAUCCAGACACUUGACACACAACGGCUGAAGCCUGGGCAGGACGUCGCCGUGCCCUAGCUGCCCUUCCUUGCCUUUCCCCCAGGUCCACACCUCUGUCAACAGAGGAUUGAGCAUCA
# B3: chr17:60770872:60770873:+_ENSG00000011028_ENST00000303375|hu_hu|hu_hu_hu_mus_True|8_48 (ssRNA)
# RNA: GGGAGUUCUACAGUCCGACGAUCUCUUUAAAAAAAAAAAAAAAAAGACAAACAAUAAUAGCACAUUUCGAGAAUCAAGAACUACAAAGAAAGGGCCGCUUUGAGUUUUUGUUCACAUCGUCCUGCAACGCUGUCGCGGGACUGCAACAGAGGAUUGAGCAUCA
# B4: chr7:141441981:141441982:+_ENSG00000106028_ENST00000265304|hu_mus|hu_hu_hu_mus_False|38_88 (ssRNA)
# RNA: GGGAGUUCUACAGUCCGACGAUCCUCAUGUCUUACAAACUGACGAAGUACCUGUAACACAGGUCUUCGAAACAUGGCUUCUGUUUUUCUUACAACCAGUCUAAUCUGCUUUUCCUAAAGGAAAGAAAGAAAAGAGAAAAAUGACAACAGAGGAUUGAGCAUCA
# B5: chr11:77336104:77336105:-_ENSG00000074201_ENST00000525064|hu_mus|hu_hu_hu_mus_False|1_78 (ssRNA)
# RNA: GGGAGUUCUACAGUCCGACGAUCCUCACACAUUGCUGUGAACAUCGCCUCCAAUGCUGAUUUAUCACUGGGCACAAAUCGAAAUUCAGAAAUGGGUUCAACAUCAUCAUUGUCUUCCUCAUCUUCAUCAGAGAGAGCAGGUUCCAACAGAGGAUUGAGCAUCA
# B6: chr18:52893488:52893489:-_ENSG00000196628_ENST00000354452|hu_hu|hu_hu_hu_mus_True|8_48 (ssRNA)
# RNA: GGGAGUUCUACAGUCCGACGAUCUAUUUAGACCAUUUCCGCGGAGUUAUGGCAUUUACUCAGUGCUGAUAGGUGGAAAAACUACUUGAACAGGGAUUUUUUUUUUCCUUAAUACAUGCCAAGAUUGGUGUGGCUGUAAAACAGCAACAGAGGAUUGAGCAUCA
# B7: chr2:48026839:48026840:+_ENSG00000116062_ENST00000540021|hu_hu|hu_hu_hu_mus_False|98_98 (ssRNA)
# RNA: GGGAGUUCUACAGUCCGACGAUCAUAGUGAGCCACUAGAGUCCUAAAUCUGGAACAGUGGCGGUCAUCCGAAAACUGGCCGAUGAAAAACUUGCCCAGUGAAGUGUCCACAAAGCAAACACCAUACACACGAGUGUGACCAGACAACAGAGGAUUGAGCAUCA
# B8: chr19:45035288:45035289:+_ENSMUSG00000036097_ENSMUST00000096053|mus_hu|motif|central (ssRNA)
# RNA: GGGAGUUCUACAGUCCGACGAUCAUUCUCCAGGGGAAACAAAGAUCUAAAAUCAAUCCCCAUAUUGAAAAACACAGCUGCGGCAUCAGACAAUGAUGGGAUCCAUGGCCAAACUGGUGAGUCACUGAAGGUAUCAUUUCUAAUCAACAGAGGAUUGAGCAUCA
# B9: chr3:33703679:33703680:+_ENSMUSG00000027677_ENSMUST00000099153|mus_hu|FALSE|FALSE (ssRNA)
# RNA: GGGAGUUCUACAGUCCGACGAUCUUCUAACUGUCCUCCUCUCUCUACAAGUGUCUGGCAGAGGUAUUUUCUUGCAUUUCUGUGAGUUGGACAGUUUUCUAAUGCAAGCUCAAAAUCUUCUAUUGCUUUGUUCAAACUUCCUUUCAACAGAGGAUUGAGCAUCA
# B10: chr14:66974463:66974464:+_ENSMUSG00000022044_ENSMUST00000074523|mus_hu|mus_mus_mus_hu_False|8_78 (ssRNA)
# RNA: GGGAGUUCUACAGUCCGACGAUCUUGUAGGACGACUUAUUCAGGGGAUCGGCCAGGAAGCAAGAGCAGAACAAGGACACCAGCGGGAGCUCCUUCAUCUUCUCUUUGUAGGCAGCAAGGGUCAUGUUGGCUGGAAUUGGUGGCCAACAGAGGAUUGAGCAUCA
# B11: chr17:65740002:65740003:+_ENSG00000130935_ENST00000581375|hu_hu|hu_hu_hu_mus_False|1_98 (ssRNA)
# RNA: GGGAGUUCUACAGUCCGACGAUCAACAAAUCUUUCUCUGGAUGAAGAACAGGAAGAUUCAUAUUAAAAAAAAUAUAUAUCCAUCAAGUUAGGUGUGGUGGCCACACCUUUACUCCCAGCACUUUGGGAGGUGGAUCCUCUAUUCAACAGAGGAUUGAGCAUCA
# B12: chr2:126738436:126738437:-_ENSMUSG00000027366_ENSMUST00000028844|mus_mus|FALSE|FALSE (ssRNA)
# RNA: GGGAGUUCUACAGUCCGACGAUCAGGCACGGAGCAUACACUCAUGACUGAGUAACCCAUCAGUUUUGGCACCCUGAUAACUACUGGCAACUUUUCAGCAUUCUCGAAAGGCCCAGCAGCAAGUUCCACCAUGAUGCUCUCACCCAACAGAGGAUUGAGCAUCA
# B13: 186295313_186296657_6180_CDS_ENSG00000047410_ENST00000367478|human|control|control (ssRNA)
# RNA: GGGAGUUCUACAGUCCGACGAUCCAUCCCUGUGUCAUCUUCAUCAUCAUCAUCAUCUUCCUCAUCCUCUUCAUAAUCCUCAUGUUCUCCAUCAUUUUCAUCAUCAUCCUCUUCUUCAUCAUCACUGUCAAUUACAAUGACAUCCAACAGAGGAUUGAGCAUCA
# B14: chr7:11082375:11082376:+_ENSG00000106443_ENST00000423760|hu_mus|FALSE|FALSE (ssRNA)
# RNA: GGGAGUUCUACAGUCCGACGAUCGUUUUUCGUCUUUCUCGGCAUCCUUGUAAGAGGAGGAUCAAGGCAGCCGAGAUGAUAAUGCAGUUUACAGGUGUCACACAGUAAAAGAAGAUGCUGAUCAUGGUUCUUCUUACAAAUUCCCAACAGAGGAUUGAGCAUCA
# B15: chr19:41288841:41288842:-_ENSMUSG00000025016_ENSMUST00000025989|mus_mus|motif|central (ssRNA)
# RNA: GGGAGUUCUACAGUCCGACGAUCUAAAUCUCCAAAUGUUUAAUAAAAACAAGCAUCUUCUCCAUUUAACACUUCGCUUGCGGACUGUACAGUAGAUUGUAUUAUAGAGAGUGCACCUCUACUUUCAUACUGUAUCUUCUUUGGCAACAGAGGAUUGAGCAUCA
# B16: chr4:115894766:115894767:+_ENSMUSG00000028698_ENSMUST00000030464|mus_hu|mus_mus_mus_hu_True|38_48 (ssRNA)
# RNA: GGGAGUUCUACAGUCCGACGAUCUUCCACACGGAAAUGUACUUCGGGUUUUCCAACGGCCAGUACCAGUCCGGCCAAACUACCCGAUGAGGACAAGGUCCUCCUCUCCUACAGAACACAACAAAAUGCCCCCGAACUUUCAAGCAACAGAGGAUUGAGCAUCA
# B17: 124787849_124787969_1977_3pUTR_ENSMUSG00000028863_ENSMUST00000154689|mouse|control|control (ssRNA)
# RNA: GGGAGUUCUACAGUCCGACGAUCCAUCCAAGAAAAUGGGAGUCUGUUUAAGAACAAAAUGAAAGGCUUUUGCACAUCUGACAGGGUGGUUCUGGUGAAGAGGCCAGCCAUCUCCGCCAACAGCAUGGACCACAACGGCCCAAGCAACAGAGGAUUGAGCAUCA
# B18: chr1:35579700:35579701:+_ENSG00000197056_ENST00000373330|hu_hu|motif|central (ssRNA)
# RNA: GGGAGUUCUACAGUCCGACGAUCGAACAAAGAACUGAGAGUUUUUAGAGCACUUCGGAGUUCUUUUACUUCUUUACAAAACCGGAUUAUUGAUAAAUCCAAAAAGUGUGCAUAACAAUGUAUGUAUAAAGCUCUUGGUUCUUCCAACAGAGGAUUGAGCAUCA
# B19: chr3:35977374:35977375:+_ENSMUSG00000027710_ENSMUST00000011492|mus_mus|motif|central (ssRNA)
# RNA: GGGAGUUCUACAGUCCGACGAUCCACAGGCACUCUGGUAUUUUCAAAAUGGACCUCACAUGUGUUGGAGCCUCGAAUGCCGGAUUUAUCUUCAGGUUUCCCAUUAGUGAUUCCGCCGAAGUCUCUUUCUACUAUGAAUGCGGUCAACAGAGGAUUGAGCAUCA
# B20: chr2:114714976:114714977:+_ENSG00000115091_ENST00000536059|hu_hu|motif|central (ssRNA)
# RNA: GGGAGUUCUACAGUCCGACGAUCAUAACUAUGAAGCCAAUUUUACGACAUGACUCCAAACACUGGAUUGUGACGACAAAUGCGGGGUCCAAUUUCUUCAUAAUCCUUUUUGGUGUGGCAUACUUGGUAGAACUCAGGCGUGGACAACAGAGGAUUGAGCAUCA
# B21: chr17:65930154:65930155:-_ENSMUSG00000024091_ENSMUST00000024897|mus_mus|motif|central (ssRNA)
# RNA: GGGAGUUCUACAGUCCGACGAUCGGUGACAUUAUCUCUGAAGGACACGGCUGAGGUGGAUCCAGGUUUAUCCGAAUGUGCGGCCUUUCUGAGCCUUAGGCCUUCAUCUCUCAGGUGUCGGUUUUCUUCUGAGAGCUUCAUCAUCAACAGAGGAUUGAGCAUCA
# B22: chr12:72179577:72179578:+_ENSG00000080371_ENST00000261263|hu_hu|motif|central (ssRNA)
# RNA: GGGAGUUCUACAGUCCGACGAUCGUUUAGCACUUAAGGUCUCUGCAGUGUUAUAAACGUAAUUUAAAAUACUGUUAAUUCGGUAAUUCCAUUGGUAAAAUAAUGUGACUUGGAAUAUGGCAGUCUUCAUGUUGAGGGCAAUGACAACAGAGGAUUGAGCAUCA
# Biological target: T1, UNK ZnF1-3
# Assay: nsRBNS (natural sequence RNA bind-n-seq); RBNS binding buffer (assumed for nsRBNS): 25 mM Tris pH 7.5, 150 mM KCl, 3 mM MgCl2, 0.01% Triton X-100, 500 ug/ml BSA, 20 U/ml SUPERase-In, 4 C; UNK is unkempt and MSI1 is Musashi-1; names of the RNAs are library labels; protein concentration not given here; high values mean tight binding
row,Binder,binding signal
1,B1,0.682 enrichment R
2,B2,0.752 enrichment R
3,B3,2.82 enrichment R
4,B4,0.707 enrichment R
5,B5,0.913 enrichment R
6,B6,0.801 enrichment R
7,B7,1.29 enrichment R
8,B8,1.18 enrichment R
9,B9,0.42 enrichment R
10,B10,2.25 enrichment R
11,B11,1.62 enrichment R
12,B12,1.03 enrichment R
13,B13,0.564 enrichment R
14,B14,0.797 enrichment R
15,B15,0.915 enrichment R
16,B16,0.79 enrichment R
17,B17,1.34 enrichment R
18,B18,1.03 enrichment R
19,B19,0.775 enrichment R
20,B20,1.1 enrichment R
21,B21,0.605 enrichment R
22,B22,1.43 enrichment R
